Laboratory results as given in article PMC4336329 (PLoS ONE, 2015).
Screen size: about 310,000 compounds; about 14,000 (4.5%) showed an effect of 50% or more. Effects have a minus sign here. The list shows a part of the results.

target: human ether-à-go-go-related gene (hERG) potassium channel (human, UniProt Q12809); experiment: primary screen, population patch clamp on CHO cells stably expressing hERG
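Also: peak tail current of the secondary pulse compared with the same well before compound.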

Chain of human ether-à-go-go-related gene (hERG) potassium channel (Q12809 whole entry, looked up): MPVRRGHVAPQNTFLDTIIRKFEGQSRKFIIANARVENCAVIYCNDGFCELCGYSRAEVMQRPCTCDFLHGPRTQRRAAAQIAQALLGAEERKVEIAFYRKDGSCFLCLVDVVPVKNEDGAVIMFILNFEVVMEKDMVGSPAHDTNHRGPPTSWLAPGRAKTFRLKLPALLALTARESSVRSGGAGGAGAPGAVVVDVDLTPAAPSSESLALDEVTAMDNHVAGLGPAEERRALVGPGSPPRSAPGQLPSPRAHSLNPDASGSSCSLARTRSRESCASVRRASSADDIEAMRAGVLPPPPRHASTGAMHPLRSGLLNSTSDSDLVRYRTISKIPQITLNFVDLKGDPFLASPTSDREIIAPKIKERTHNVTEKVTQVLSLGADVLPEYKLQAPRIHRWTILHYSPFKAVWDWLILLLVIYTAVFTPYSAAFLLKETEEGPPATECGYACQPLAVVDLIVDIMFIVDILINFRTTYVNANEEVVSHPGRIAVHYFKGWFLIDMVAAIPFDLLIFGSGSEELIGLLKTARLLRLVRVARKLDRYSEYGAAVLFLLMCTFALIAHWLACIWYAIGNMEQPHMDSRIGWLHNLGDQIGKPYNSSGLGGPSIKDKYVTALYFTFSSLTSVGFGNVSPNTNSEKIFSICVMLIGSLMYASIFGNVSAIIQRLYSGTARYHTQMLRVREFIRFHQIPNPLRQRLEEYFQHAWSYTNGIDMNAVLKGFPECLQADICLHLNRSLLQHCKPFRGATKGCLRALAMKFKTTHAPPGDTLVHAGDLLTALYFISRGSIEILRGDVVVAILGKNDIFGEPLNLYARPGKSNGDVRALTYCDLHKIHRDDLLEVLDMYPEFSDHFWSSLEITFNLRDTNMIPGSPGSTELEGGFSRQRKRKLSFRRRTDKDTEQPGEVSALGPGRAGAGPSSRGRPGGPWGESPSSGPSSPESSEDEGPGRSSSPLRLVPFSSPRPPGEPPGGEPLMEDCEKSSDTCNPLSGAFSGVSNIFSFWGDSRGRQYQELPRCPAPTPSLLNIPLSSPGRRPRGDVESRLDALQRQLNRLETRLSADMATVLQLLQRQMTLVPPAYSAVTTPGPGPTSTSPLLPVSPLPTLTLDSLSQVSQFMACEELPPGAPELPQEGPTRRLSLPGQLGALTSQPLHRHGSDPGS

Row | SMILES | hERG current change (%, negative = inhibition) at 10uM [%]
1 | O=C(CN(Cc1ccccc1)C(=O)c1cccc([N+](=O)[O-])c1)Nc1c(Cl)cc(Cl)cc1Cl | -7.95
2 | COc1ccc(C(=O)CNC2=NCCC2)cc1.Cl | -3.72
3 | CC(C)C(C(=O)OCC(=O)c1ccccc1)N1C(=O)C2C3C=CC(C3)C2C1=O (stereo not shown) | 0.444
4 | CC(=O)Nc1cc(C(=O)N2CCC3(CC2)OCCO3)ccc1S(=O)(=O)c1ccc(C)cc1 | 12.3
5 | Cc1ccc(Sc2ncccc2C(=O)NCc2cc([N+](=O)[O-])ccc2O)c(C)c1 | 17.2
6 | CCOc1cc(/C=N/NC(=O)c2cccnc2)ccc1OCc1ccc(C(=O)OC)o1 | 10.9
7 | O=C(NCC1CCCO1)c1cc2nc(-c3ccco3)cc(C(F)(F)Cl)n2n1 (stereo not shown) | 7.91
8 | CCn1nnnc1SCC(=O)NNC(=O)C1CCCCC1 | -12.7
9 | COc1ccc(OC)c(Cc2nnc(CCC(=O)N3CCN(C4CCCC4)CC3)o2)c1 | -4.69
10 | CC1=C(C(=O)Nc2ccc(C)cc2)C(c2ccc(N(C)C)cc2)NC(=O)N1 (stereo not shown) | 17.5
11 | Cc1ccc(S(=O)(=O)NN2C(=O)/C(=C/c3cccc(F)c3)SC2=S)cc1 | 3.76
12 | CN(CC(=O)NC(=O)NCc1ccccc1)CC(=O)Nc1ccc(Cl)c(C(F)(F)F)c1 | -1.53
13 | O=S(=O)(NCCCCNS(=O)(=O)c1c(F)cccc1F)c1ccc2c(c1)OCCO2 | -5.62
14 | CC(C)(C)n1cccc1/C=C1\C(=O)NC(=O)N(c2ccccc2)C1=O | -13.9
15 | COCCNS(=O)(=O)c1ccc(C2CNC(=O)C2)cc1 (stereo not shown) | 4.09
16 | NC(=O)SCC(=O)Nc1ccc(Cl)cc1 | 15.3
17 | CCn1cc(Br)c(C(=O)NC(=S)Nc2ccc(C(=O)OC)cc2)n1 | -4.48
18 | CCc1nc2oc(C(=O)c3ccccc3)c(N)c2c2c1COC(C)(C)C2 | 12.3
19 | O=C(NCCCSc1ccccc1)c1ccc(=O)[nH]c1 | 21.6
20 | Cc1ccc(OC(=O)N2CCOCC2)cc1 | 18.3
21 | O=C(COc1ccc(F)cc1Cl)Nc1cccc(S(=O)(=O)N2CCCC2)c1 | 5.73
22 | O=C(Nc1ccnn1C1CCN(C2CCOCC2)CC1)c1cccc(F)c1 | -1.9
23 | COc1cccc2c1CCC(NC(C)=O)C2=O (stereo not shown) | 32.9
24 | CC(=O)Nc1ccc(NC(=O)c2ccc(C3SCC(=O)N3CCc3ccccc3)cc2)cc1 (stereo not shown) | 3.22
25 | c1ccc(OCCCn2nnc(-c3ccncc3)n2)cc1 | -10.7
26 | CCOc1cc(/C=C/c2cc(C(=O)O)c3ccccc3n2)ccc1OC | -0.37
27 | CNc1ccccc1C(=O)OCC(=O)Nc1ccc2c(c1)OCO2 | 6.77
28 | Cc1ccc(C(=O)N2CCN(c3ccc(N4CCOCC4)nn3)CC2)cc1C | -21.2

Row | SMILES | hERG current change (%, negative = inhibition) at 10uM [%]
29 | O=C(c1ccc(F)cc1)N1CCC(C(=O)N2CCN(S(=O)(=O)c3cccc([N+](=O)[O-])c3)CC2)CC1 | -34.5
30 | O=C(Cn1c(COc2ccccc2)nc2ccccc21)Nc1cc(Cl)c(Cl)cc1Cl | 1.36
31 | C[C@]12CC[C@@H]3c4ccc(O)cc4CC[C@H]3[C@@H]1CCC2=O | -0.0831
32 | O=C(NNC(=O)c1ccc(O)c(Cl)c1)c1cccc(S(=O)(=O)N2CCOCC2)c1 | 16.3
33 | COCCCNC(=O)CN(c1cc(C(F)(F)F)ccc1Cl)S(C)(=O)=O | -11.7
34 | COc1ccc(NC(=O)c2ccc(S(=O)(=O)NCc3cccnc3)cc2)cc1 | -17.8
35 | CCCN1CCC(=O)N([C@H](CO)c2ccccc2)CC1 | 9.36
36 | CN1C2C=C(N(C(=O)c3ccc(Cl)cc3)c3ccccc3)CC1CC2.Cl (stereo not shown) | -74
37 | Cc1nc(CS(=O)(=O)c2ccccn2)sc1C(=O)NNC(=O)c1ccccc1 | 10.4
38 | COCCNC(=O)CCC1CCN(Cc2cccc(Oc3ccccc3)c2)CC1 | -55.3
39 | COc1cc(/C=C2/C(=N)N3C=CSC3=NC2=O)ccc1OCCCOc1ccccc1C | 6.31
40 | COc1ccc(/C=C/C(=O)c2ccc(NS(=O)(=O)c3ccc(C)cc3)cc2)cc1O | 1.89
41 | CCCCNC(=NCc1cccc(C(F)(F)F)c1)Nc1ccccc1 | -16.8
42 | COc1cc2c(cc1NC(=O)Nc1cccc(C)c1)oc1ccccc12 | 6.15
43 | CCC(CC)C(=O)OCC(=O)Nc1cccc(S(=O)(=O)N(C)c2ccccc2)c1 | 14.3
44 | OCCN(Cc1ccccc1)CC1CC2C=CC1C2 (stereo not shown) | -14.6
45 | O=C(Cn1cncn1)NCc1ccc(Cl)cc1 | 7.07
46 | Cc1ccc(C(C)C)cc1S(=O)(=O)NC1CC(C)(C)NC(C)(C)C1 | -3.71
47 | COc1ccc(/C=N/NC(=O)c2cccs2)c2ccccc12 | 9.42
48 | Cc1ccc(N2CCN(C(=O)N3CCOCC3)CC2)c(C)c1 | 6.02
49 | CN1C(=S)N(c2cccnc2)C(=O)/C1=C\c1ccc(C(C)(C)C)cc1 | 5.97
50 | COC(=O)N1CCc2c(sc(NC(=O)C3COc4ccccc4O3)c2C(N)=O)C1 (stereo not shown) | 2.44
51 | O=C1OCc2ccc(NC(=O)C3CCCCC3)cc21 | 2.51
52 | Cc1ccccc1-c1nnc(SCCC(=O)N2CCOCC2)o1 | -2.53
53 | Cc1ccc2cc(C#N)c(N3CCCN(S(=O)(=O)c4ccccc4)CC3)nc2c1C | 0.802
54 | COc1ccc(N2C(=O)C(Cl)=C(N3CCCC3)C2=O)cc1 | 13.9
55 | Cc1ccc(F)cc1NC(=O)CN1CCN(c2ccccn2)CC1 | -35.2
